Test results published in the RNAGym collection of RNA variant scans (doi:10.7554/elife.90254).
The source gives no read counts; variants with many changes may rest on few reads.

B1: LINE1-mini (parent)
chain: GGCAGAGCUCAACACAGCGUGGCAAAGUGGCUGUGGCUAGACUGCC

Variants of: B1
Assay: self-cleavage, relative activity (ratio to wild type); higher = more cleavage; in vitro, sequencing; the parent is a self-cleaving ribozyme

Variant	self-cleavage
A25C A26U G29A G36A C37G	0.02
C23A G33A G40A	0.05
C23G A26C G30U C31A G40U	0.01
A26C G27A G36U C46G	0.53
C23U U38C C45A	0.26
G22U C23U U32A A39C	0.59
A25U G27A G36A C37U C45G	0.25
A25C U32C C46A	0.06
G22U G30U C31A U32G G35U	0.03
A24U G30C A39U G44A	0.03
C23U A25G C31U U32C	0.14
A25U G29A U38A A39U C42U	0.11
A25G G36C A41U G44U	0.03
A25G U43A C46A	0.04
C23G C45G C46A	0.06
G22U G29A C46G	0.49
C23A C37A U38A C42U	0.04
A24C U28G U32A	0.03
A25U A39C G40A C46G	0.11
C23U U28C U34C G35U G36C C45U	0.04
G22U A25U C31G A39G C46A	0.04
G22U C37G C45A	0.05
G22U G29U G35C C46G	0.02
A25G U28C C37A	0.07

Variant	self-cleavage
A25C G27A U28A	0.24
A24G A26U C31U	0.1
C23U G29U A39U	0.61
A26C G30C U32A G35C	0.14
C23A A25U G35A G36C	0.56
A25U C31G C37G	0.03
G22U U34G G36C	0.04
A25G G36A C45G	0.03
A25G U28A C31A G35A	0.18
G22U G27C G35C	0.16
A25C G27U U34C	0.07
G22U C37G G44U	0.28
A24U A25C G29U	1.06
A24G A25U G35U C37U	0.03
A24C G29U G35C A41C C45U	0.07
A24C G27U G29C	0.75
A25C A39U C42G	0.03
C23G G27C G29U	0.15
C23U G36A A39C	0.09
C23A G27C C46G	0.17
A24G C31G C46G	0.03
C23U A24U G36U U38A	0.02
A25U G27U C31U	0.78
A25C G29U G36A	0.17

Variant	self-cleavage
G22U A24U G27A C37A	0.03
A26C G30A G36C U38C	0.08
A24C U34C A39C	0.04
A25U A39U U43C	0.35
G22U C23A C46G	1.31
A24G U28C C31U G33C	0.06
C23A G29U G30U A41C C45G	0.03
C23A C42U C46G	0.24
G22U G30U C45A	0.32
A24U A25U C31A	0.04
C23A A24C C31A U32G	0.02
G22U G29U G33C U43G	0
A24C G27U A41G U43A G44C	0.05
A25G G29U G33U U43C	0.18
G22U G35U C45U	0.07
G22U G30A C42U C46G	0.16
G22U G36A C46G	0.34
A24G G27C C37U	0.04
A24C G33U C46U	0.07
A25C C31G U34A	0
C23U A41U G44C	0.37
C23U A41U G44A	0.3
A24C A25U G33A	0.18
C23A G27A A39C	0.09

Variant	self-cleavage
C23U G27A G44C	0.29
A25U G30A G33A	0.06
G22U G29C U34G	0.05
G22U A26U G27A	0.46
A25U C31G C42A	0
A25C U28C G36A G40A	0.16
A25U C31U U32G U34C G44U	0.04
C23A A26U A39U	0.39
A24G C31A U43A	0.19
A26C G29U C37U	0.04
A24G A25C G29U G40A C45G	0.02
C23G C31A G44A	0.06
A26C G33C G44U	0.06
A24G G30A C31A	0.05
C23A G27U G30U G33U	0.23
G22U A26U C37A	0.02
C23G A24C C42G G44A C45G	0.02
A25G G33C C42A	0.03
C23A C31U G40A	0.25
C23G G33A C37G U38A A39U	0.04
A24G C45A C46A	0.59
A25U G36A C42A	0.26
A24C A39U C42G	0.02
C23G A25C U28C	0.21

Variant	self-cleavage
A25C A26C C31U	0.11
C23G C37U A39C	0.46
A26C G27C C31G	0.02
A25G G27C G36U	0.04
G22U U28G G29C C42A	0.12
C23A A25G U28C G36C	0.01
A25U C37U C45A	0.05
C23A U28G G33A G44A C45A	0.03
A26C C42U U43A C46A	0.08
G22U G35U G40U	0.02
C23U A26G C31U U32C C46U	0.01
A24U G29A C37A C45U	0.2
A26C A41U C46U	0.72
A26C G30C G33U A39U	0.12
A25U U32C C45G	0.07
C23A G36U C46U	0.08
A25G A26C C42U U43A	0.03
C23U C45G C46A	0.42
A24C U34A G44U	0.11
C23U G27A U43C	0.25
A24C A25G C42G	0.07
C23G A25G G29A	0.49
C23A C31U A41C G44U	0.01
C23U C37U C46U	0.01

Variant	self-cleavage
A25U U28A U32G G35A A41G	0.06
C23A U38A C45U C46A	0.16
A25U U32C G35C G40U C46U	0.13
C23A A26U C45G	2.8
C23U U34A G36C	0.05
G22U A39C A41G C42A	0.06
C23U G29U A39C C42A	0.08
A25G G44U C46A	0.05
A24C C42A C45G	0.08
C23A G27C U34C	0.39
C23A C31A U34C	0.04
G22U A26U G44A	0.46
C23G G29U C37G	0.04
A25U A26G C46A	0.45
G22U G27U U34C G35C	0.26
C23A A24U C37A	0.02
A24U C37G G44A	0.04
G22U G35A G40U U43C	0.09
A24C G29C G35C C46U	0.27
A25G C31A U32G G40C U43A	0.17
G22U A26G G30A G36C U38C A39U A41C	0.07
A24C U32G C37U	0.03
A24G G40C C45U	0.1
A24C G27A C31U U32A	0.04

Variant	self-cleavage
A25G G29A G30C G40C	0.05
C23A C37U G40C	0.16
A24C U32G U34A	0.03
A25U U28G C46A	0.27
A24C C42G G44U C45A	0.02
A25C G29A A39U A41C	0.12
A24C U28G C42A	0.16
A24U G36A U38A C42G U43A	0.03
A25U A26U G35A U43A	0.04
G22U G27A C37A C46U	0.02
A24C G27A U38G U43G	0
A24G G29U C42U	1.02
G22U G29U C45A C46U	0.45
A24C U38G A41U	0.02
C23A C31U U38A G40C	0.1
A24U G33U C46A	0.05
A24G G30A G44C	0.15
A26C C31U A39U	0.05
C23G G27C C31G	0.96
C23G U34C C45U	0.25
G22U C31G G40U U43C	0.47
G22U C23A G33C	0.06
A25C G33U A41U	0.13
